Reference: PubChem BioAssay (NCI)
Several values for one entry are separate records, joined by “and”; a condition that tells them apart may be missing. Equal values may be shown once.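 Interpolation was linear, between the two tested concentrations surrounding the appropriate level; five concentrations were tested over 48 hours in 96-well plates. The concentration for 50% growth inhibition is given as GI50. At the TGI there is no net growth.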

System: NCI-H322M lung
Assay: inhibition of tumour cell growth, NCI panel, 48 h

SMILES | TGI | GI50
CC(=O)OCC(OC(C)=O)C(OC(C)=O)C(OC(C)=O)C(=O)CNn1c(-c2ccccc2)nc2ccc(Br)cc2c1=O (configuration not stated) | > 100 µM | 
O=C(N=Nc1c(O)[nH]c2c(Cl)cc(Cl)cc12)c1ccncc1 | > 100 µM | 
O=C(O)c1ccc(S(=O)(=O)N=Nc2c(O)[nH]c3ccccc23)cc1 | > 100 µM | 
CCCC[P+](c1ccccc1)(c1ccccc1)c1ccccc1 | > 100 µM | 14 µM
CN(C)CCCSc1c2ccccc2nc2cc(NCC(=O)Nc3ccccc3-c3ccccc3NC(=O)CNc3ccc4c(SCCCN(C)C)c5ccccc5nc4c3)ccc12 | > 100 µM | 
CC1(C)CCCCCCCCCC(C)(CCCO)C1=O (configuration not stated) | 24.7 µM | 
CCN(CC)CCCCCOc1cc(O)c2c(=O)cc(-c3ccccc3)oc2c1 | 20.2 µM | 7.21 µM
O=C(NCCN1CCOCC1)Nc1ccc(-c2cc3c(Nc4ccc(Oc5cccc(C(F)(F)F)c5)c(Cl)c4)ncnc3s2)cc1 | 7.31 µM | 1.76 µM
CCOC(=O)c1c(C)n(CC(C)C)c2c1cc1oc(=O)c(=O)n3cnc2c13 | > 50 µM | 13.7 µM
Cc1cnc2[nH]c(-c3ccc(F)cc3)cc(=O)c2c1 | > 87.2 µM | 
COc1ccc2nc3cc([N+](=O)[O-])ccc3c(NNc3ccc(Cl)cc3)c2c1 | > 100 µM | 
COc1ccc2c(c1OC)-c1c(c3ccc([N+](=O)[O-])cc3c(=O)n1CCCN=[N+]=[N-])C2=O | > 100 µM | > 100 µM
CCN(CC)CCN=Cc1c(O)c(O)c(C(C)C)c2cc(C)c(-c3c(C)cc4c(C(C)C)c(O)c(O)c(C=NCCN(CC)CC)c4c3O)c(O)c12 | 20.3 µM | 
CCCCCCCCCCCCOC1C(C(COC2OC(C(O)CN3CCCCC3)C3OC(C)(C)OC23)NC(=O)Nc2ccccc2)OC2OC(C)(C)OC21 (configuration not stated) | 32.4 µM | 13.4 µM
CO[C@@](c1ccccc1)(c1nc(C#N)c(N)o1)C(F)(F)F | > 100 µM | 
O=C1C=CN(C2OC(CO)C(O)C2O)C(=O)C1 (configuration not stated) | 625 µM and > 2500 µM | 267 µM
CCn1c(-c2nonc2N)nc2c(C#CC(C)(C)O)nc(O[C@@H](CN)c3ccccc3)cc21 | 3.74 µM | 0.639 µM
O=C1SC(c2ccc(Cl)cc2)(c2ccc(Cl)cc2)c2ccccc21 | > 100 µM | 
COC(C/C(=C/CO[Si](C(C)C)(C(C)C)C(C)C)C(=O)Nc1ccccc1I)OC | > 100 µM | 
C[C@@H]1C[C@@H](O)[C@@]2(O)C13CC(=O)OC(C3)[C@@H](C)[C@@]2(C)CO (some centres not stated) | > 100 µM | 
Cc1ccc(S(=O)(=O)[N-]C2C(=O)c3ccccc3C(=O)C2[n+]2cccc(C(N)=O)c2)cc1 (configuration not stated) | > 100 µM | 
COc1ccc2[nH]c(-c3cccc(N(C)C)c3)cc(=O)c2c1 | > 100 µM | 0.515 µM
Cc1[nH]n(-c2nc3c(c(=O)[nH]2)CCC3)c(=O)c1CCO | > 100 µM | 
COC1C=C(NCC2(CO)CCC2)NC(N)=N1 (configuration not stated) | > 100 µM | 
COc1cc(C)cc2c1C(=O)C(Br)=CC2=O | 31.5 µM | 

SMILES | TGI | GI50
CN(C)CCNC(=O)c1cccc2nc3c4ccccc4c4ccccc4c3nc12 | 3.08 µM | 
C[n+]1cccc(/C=C/c2ccc3cccc(O)c3n2)c1 | > 100 µM | 
NC(=O)C(=CN1C(=O)CC(=O)NC1=S)C(N)=O | > 100 µM | 
COC1=CC(C2c3cc4c(cc3[C@@H](Nc3ccc([N+](=O)[O-])cc3)C3COC(=O)[C@H]23)OCO4)=CC(=O)C1=O (some centres not stated) | > 95.4 µM | 
Cc1c(C2Cc3ccccc3N2C(=O)/C=C\C(=O)O)c2ccccc2n1C (configuration not stated) | 56.7 µM | 
COc1ccc(OC)c(-c2cc(-c3ccccc3)nn2-c2ccc(S(N)(=O)=O)cc2)c1 | 22.5 µM | 10.5 µM
CC1CCC2C(C)C3C(CC4C5CC=C6CC(OC7OC(CO)C(O)C(OC8OC(CO)C(O)C(O)C8O)C7OC7OC(C)C(O)C(O)C7O)CCC6(C)C5CCC43C)N2C1 (configuration not stated) | 29 µM and > 2.5 µg/mL | > 2.5 µg/mL
COC(=O)/C(C#N)=C1\NC(=O)CC(c2ccccc2)C1C#N (configuration not stated) | > 100 µM | 
c1ccc2cc(OCC3CO3)c(OCC3CO3)cc2c1 (configuration not stated) | 25.2 µM | 
Cc1[nH]c(=O)nc(CC(O)(c2ccccc2)c2ccccc2)c1-c1ccccc1 | > 100 µM | 
COc1ccc(/C(Cl)=C(\C=O)c2ccc(OC)c(OC)c2)cc1OC | > 100 µM | 
CC1(C)OC(=O)C(C)(C)OC1=O | > 100 µM | 
CC(C)CC(CNC(Cc1ccc(Cl)cc1)C(N)=O)NC(=O)C(Cc1cnc[nH]1)NC(=O)CNC(=O)C(NC(=O)C(C)NC(=O)C(Cc1c[nH]c2ccccc12)NC(=O)C(CCC(=O)O)NC(=O)C(N)Cc1ccccc1)C(C)C (configuration not stated) | > 133 µM | 
CC1=NN2C(=O)CC(=O)N=C2S1 | > 100 µM | 
COC1(OC)CC2C(=O)N(Cc3ccccc3)C1CC2S(=O)(=O)c1ccccc1 (configuration not stated) | > 100 µM | 
CCOC(=O)c1cc(C2CCN(CC(C)CC)C2=S)c(C(=O)/C=C(/C)N)[nH]1 (configuration not stated) | > 50 µM | 
CC(C)CNc1nc(N)[nH]c(=O)c1NC=O | > 100 µM | 
COc1ccc(-n2c3c(c4cc(O)ccc42)C(=O)c2ccccc2C3=O)cc1 | 59.7 µM | 
COc1cc(/C=C2/SC(c3ccccc3)N(c3ccc(Cl)cc3)C2=O)cc(OC)c1OC (configuration not stated) | > 100 µM | 
CCCCSC1=N/C(=C\c2ccco2)C(=O)N1 | > 100 µM | 
CN(C)c1nc(N(C)C)n2nc(-c3ccccc3[N+](=O)[O-])nc2n1 | > 100 µM | 
Cc1cn(CC2=NCC(C)(C)CN2)c(=O)[nH]c1=O | > 100 µM | 
CC(F)(F)c1cc(F)ccc1-c1sc2cc(O)ccc2c1Oc1ccc(/C=C/C(=O)O)cc1 | 26.3 µM | 13.1 µM
O=[N+]([O-])/C(Cl)=C(\Nc1ccccc1)C(Cl)=C(Cl)Cl | > 100 µM | 
O=C(CSCC(=O)N/N=C/c1cccc(OCc2ccccc2)c1)N/N=C/c1cccc(OCc2ccccc2)c1 | > 100 µM | 

SMILES | TGI | GI50
C[C@H]1C(OCCOC2O[C@@H]3O[C@@]4(C)CC[C@H]5[C@H](C)CCC([C@H]2C)[C@@]35O4)O[C@@H]2O[C@@]3(C)CC[C@H]4[C@H](C)CCC1[C@@]24O3 (some centres not stated) | > 100 µM | 
NCS(=O)(=O)O | > 100 µM | 
NC(N)=N/N=C/c1cccc(Cl)c1Cl | 16.1 µM | 4.49 µM
CCCCN(CCCC)CC(C)(C)C(O)c1ccc(OC)c2ccccc12 (configuration not stated) | 37.5 µM | 6.69 µM
COc1ccc(Nc2nc(N)c(C(=O)c3ccc(OC)cc3)s2)cc1 | > 59.2 µM | 
Oc1ccc(/C=N/Nc2nc3ccccc3s2)c(O)c1 | 6.09 µM | 1.18 µM
Oc1ccc(Br)cc1/C=N/NC(=S)NC12CC3CC(CC(C3)C1)C2 | 7.93 µM | 2.38 µM
NC12CC3CC(C1)CC(Cl)(C3)C2 | > 100 µM | 
CC(=O)c1c(O)ccc2c1CC(CC=O)O2 (configuration not stated) | > 100 µM | 
COC(=O)c1c2c(c(C)[n+]([O-])c1C)C(=O)C(NCc1cccc(OC)c1)=CC2=O | 6.34 µM | 2.3 µM
Cc1ccc(C)c(/C(=N\N=C(N)N)C2CC2)c1 | > 100 µM | 
O=c1oc2ccccc2cc1-c1nnc(-c2ccccc2)s1 | > 100 µM | 
Cc1cc(NC(=O)C(=O)Cc2cnc3ccccc3n2)c(S(=O)(=O)O)cc1Cl | > 100 µM | 
O=C1c2ccccc2C(=O)c2c(NCCNC(=O)C3CCCN3)ccc(NCCNC(=O)C3CCCN3)c21 (configuration not stated) | 0.261 µM | 
O=C(O)c1ccc(-c2ccc(C(=O)O)cc2I)c(I)c1 | > 100 µM | > 100 µM
COc1cccc(/C(C=O)=C(\Cl)c2ccc(OC)c(OC)c2)c1 | 28.6 µM | 
COc1cc2c(cc1OC)C(Cl)C(c1ccc(Cl)cc1)=C2Cl (configuration not stated) | 41.9 µM | 
CC(C)C[C@H](NC(=O)CCc1ccccc1)B(O)O | > 100 µM | 
O=c1cc(NCC2CCCCC2)[nH]c(=O)[nH]1 | > 100 µM | 
CCOC(=O)c1nnsc1NC(=O)Nc1ccc(Cl)cc1 | > 100 µM | 
CCOC(=O)N1c2ccccc2S(=O)(=O)c2ccccc21 | > 100 µM | 
COc1ccc(CCNCc2cccc(OC)c2OC)cc1OC | > 100 µM | 
CC(=O)NCCCCCCNC(C)=O | > 10000 µM | 
CC1=Nc2c([nH]c(=S)[nH]c2=O)NC(c2ccc(Cl)c(Cl)c2)C1 (configuration not stated) | > 100 µM | 
C#CCCOC1(OC)N=NC(C)(C)O1 (configuration not stated) | > 100 µM | 

SMILES | TGI | GI50
CN(/N=C/c1ccnc2ccccc12)c1ccc([N+](=O)[O-])cc1[N+](=O)[O-] | > 100 µM | 
C=C1C(=O)O[C@H]2[C@H]1[C@H](OC(=O)/C(C)=C\C)C[C@]1(CO1)[C@@H]1[C@H](OC(C)=O)C=C(C)[C@]21O | > 100 µM | 
Cc1cccc2c1Oc1cc(Cl)ccc1C2NC(=O)CN(C)C (configuration not stated) | > 100 µM | 
CCOC(=O)CC1=NC(=Nc2cc(Cl)ccc2Cl)SC1 | > 100 µM | 
CC1(C)[C@@H]2C[C@H]1C(Cc1ccc(C[C@H]3c4cc(-c5ccccn5)ncc4[C@H]4C[C@@H]3C4(C)C)cc1)c1cc(-c3ccccn3)ncc12 (some centres not stated) | > 100 µM | 
COc1cccc(-c2cccc(SC)n2)n1 | > 100 µM | 
Cc1ncc(CO)c(CN)c1O | > 100 µM | 
CC1=CCC[C@@](C)(O)[C@@H]2C[C@H]3C(CSc4ccccc4)C(=O)O[C@H]3[C@@H](O2)[C@H](C)CCC1 (some centres not stated) | 41.4 µM | 
Oc1cc(O)cc(/C=C/c2ccc(O)c(O)c2)c1 | > 100 µM | 
C[C@H]1COC2(c3ccccc3)CCC(=O)N12 (some centres not stated) | > 100 µM | 
CCOC(=O)c1c2c(c(O)c3ccccc3c(O)n(-c3ccc(C)cc3)c1C)C(=O)C=CC2=O | 57 µM | 
BrC(Br)(Br)c1cnc2ccccc2n1 | 19.2 µM | 5.86 µM
CC(NC(=O)/C(C#N)=C/c1ccc2[nH]ccc2c1)c1ccccc1 (configuration not stated) | 50.9 µM | 
Cc1[nH]nc2c1N=C(c1ccccc1F)c1cc(C#N)ccc1N2 | 16.3 µM | 5.64 µM
CC(=N/NC(=S)Nc1c(C)n(C)n(-c2ccccc2)c1=O)/C(C)=N\NC(=S)Nc1c(C)n(C)n(-c2ccccc2)c1=O | > 100 µM | 
CCOC(=O)C1=C(O)c2ccccc2C(=O)C1=O | > 100 µM | 
NC1=NC2(O)c3ccccc3C(=O)C2(O)N1 (configuration not stated) | > 100 µM | 
Cc1ccc(S(=O)(=O)NC(=O)NCC(=O)NCC(=O)O)cc1 | > 100 µM | 
COc1ccccc1CNC(=O)C1c2ccccc2C(=O)N(CC(C)C)C1c1cccs1 (configuration not stated) | > 100 µM | 32.2 µM
CCOC(=O)c1nc2ccc(Cl)cc2c2c1CCO2 | > 100 µM | 
O=C(O)c1ccccn1 | > 100 µM | 
N=C(N)c1ccc(-c2ccc(-c3ccc(Cl)cn3)s2)cc1 | 3.07 µM | 1.66 µM
COc1cc2nc(-c3ccc(-n4cncc4-c4ccc(N)cc4)cc3)sc2c(OC)c1OC | 21.5 µM | 2.07 µM
NS(=O)(=O)c1ccc(NC(=O)CC(=O)Nc2ccc(S(N)(=O)=O)cc2)cc1 | > 100 µM | 
